From ChEMBL document CHEMBL1201862, “PubChem BioAssay data set” (2004) come the findings set out here.

Values joined by “and” are separate entries in the source; they are usually repeats but may differ in a detail not shown here. Equal entries are not always repeated.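 Values below derive from 48-hour exposures of cells grown in 96-well plates, with endpoints linearly interpolated between the two concentrations bracketing the appropriate inhibition level. GI50 is the concentration that inhibits growth by half.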 Active and inactive are the calls of the source. Cut-off read from the data, not from the text of the source: active = GI50 up to about 1.1 µM and inactive = higher.

This assay concerns NCI-H322M. As to the kind of experiment: growth of human tumour cells (NCI), 48 h.
Take `CC(C)C[C@H](NC(=O)[C@@H](Cc1cccc2ccccc12)NC(=O)N1CCOCC1)B(O)O`: the GI50 is inactive: 19.8 µM.

In the case of `Cc1nc(-c2ccccc2)cn2c1nc1ccccc12`, the GI50 is inactive: 27.2 µM.

As for `O=C1C=C(Nc2nc(O)cc(C(=O)O)n2)c2ccccc2C1=O`, the GI50 is inactive: > 100 µM.

In the case of `CCCCc1ccc(Nc2nc(O)c3ncn(COCCO)c3n2)cc1`, the GI50 was inactive: > 100 µM.

Regarding `c1cncc(CNCCN2CCNCC2)c1`, the GI50 was inactive: > 100 µM.

As for `COc1cc2c3c(c1OC)-c1cc4c(cc1CC3(C#N)N(C(=O)c1ccccc1)CC2)OCO4` (stereo not given), the GI50 is inactive: 35.9 µM.

`COc1cc(C2c3cc4c(cc3OC(N3CCCC3)C2C)OCO4)cc(OC)c1O` (stereo not given): the GI50 is inactive: 24.4 µM.

On to `Brc1ccc2c3c1[C@@H]1O[C@@H]1c1cccc(c1-3)[C@@H]1O[C@H]21`, for which the GI50 is inactive: 27.3 µM.

On to `CC1C[C@]2(C)C(NCCN)=Nc3ccccc3[C@@H]2N(C)c2ccccc21` (stereo not given in full), for which the GI50 is inactive: 10.9 µM.

Turning to `CCOC(=O)CC(C)C1(C(=O)OCC)CCCCC1=O` (stereo not given), the GI50 is inactive: > 100 µM.

Consider `Cn1cc(C(=O)c2ccccc2)c2ccccc2c1=O`, for which the GI50 is inactive: > 100 µM.

`CC(C)OC1OC(CO)C(O)CC1n1cc(F)c(=O)[nH]c1=O` (stereo not given): the GI50 is inactive: > 100 µM.

For the compound `O=C(N/N=C/C=C/c1ccccc1)c1ccccc1Nc1ccccc1C(=O)N/N=C/C=C/c1ccccc1`, the GI50 was inactive: > 100 µM.

For `C/C(=N\NC(=O)CC#N)c1c(O)cc(C)oc1=O`, the GI50 is inactive: > 100 µM.

As for `CO[C@](C(=O)OC[C@H]1[C@@H](COC(C)=O)[C@@H]2O[C@H]1c1cc3c(cc12)OCO3)(c1ccccc1)C(F)(F)F`, the GI50 was inactive: 67.1 µM.

Regarding `Cn1nc(-c2ccccc2)c2c(/C=C/c3ccccc3)onc2c1=O`, the GI50 is inactive: > 100 µM.

On to `C=C1C2CC[C@@](C)(O)C2[C@H]2OC(=O)C(=C)[C@@H]2C[C@H]1O` (stereo not given in full), for which the GI50 is inactive: 51.2 µM.

For `CCN(CC)/[N+]([O-])=N/OCC(C)O` (stereo not given), the GI50 is inactive: > 100 µM.

In the case of `C[C@H](CCC1=NCCN1)[C@H]1CC[C@H]2[C@@H]3[C@H](O)C[C@@H]4C[C@H](O)CC[C@]4(C)[C@H]3CC[C@]12C`, the GI50 is inactive: 14.5 µM.

As for `CCOC(=O)C(C)(C)Oc1ccc2c(=O)cc(-c3ccccc3)oc2c1`, the GI50 is inactive: > 100 µM.

Consider `c1ncn(C23C4C5C6C4C2C6C53)n1` (stereo not given), for which the GI50 was inactive: > 100 µM.

On to `C#CCn1ncc2c(SC)ncnc21`, for which the GI50 is inactive: > 100 µM.

For the compound `Cc1ccsc1/C=N/Nc1cnccn1`, the GI50 was inactive: > 100 µM.

Consider `CC(=O)C(=NNc1ccc(-n2c(C)nc3ccc(Br)cc3c2=O)cc1)C(C)=O`, for which the GI50 was inactive: > 100 µM.

In the case of `CC(=O)OC1CCn2nnc(COC(=O)NC(C)C)c21` (stereo not given), the GI50 is inactive: > 100 µM.

On to `CCOc1ccc2nc(NC(NC(=O)c3cccnc3)(C(F)(F)F)C(F)(F)F)sc2c1`, for which the GI50 is inactive: 42.4 µM.

Turning to `C[N+](C)(C)CC(=O)N/N=C(/Cc1nc2ccc([N+](=O)[O-])cc2nc1O)C(=O)Nc1cc(C(F)(F)F)ccc1Cl`, the GI50 is inactive: > 100 µM.

For `O=c1oc2ccccc2cc1-c1nc2ccccc2s1`, the GI50 is inactive: 10.5 µM.

As for `COc1cc(/C=C/C(=N\NC(=S)NN)c2sc(NNC(C)=O)nc2C)ccc1O`, the GI50 was inactive: > 100 µM.

`C/C(=C/CNc1ncnc2c1ncn2CCC(=O)O)CO`: the GI50 is inactive: > 100 µM.

With `CO/C(=N/N1CC1C(F)(F)F)c1ccncc1` (stereo not given), the GI50 is inactive: > 100 µM.

Consider `CN(C)CCn1cnc2sc3ccccc3c21`, for which the GI50 is inactive: > 100 µM.

As for `COc1ccc(C2(O)c3ccccc3C(=O)N(C)C2(O)c2ccc(OC)cc2)cc1` (stereo not given), the GI50 is inactive: > 100 µM.

With `COc1cc(S(=O)(=O)Nc2ccc(-c3csc(/N=C\c4ccccc4O)n3)cc2)ccc1Cl`, the GI50 was inactive: 80 µM.

Regarding `O=C([C@H](O)[C@@H](O)c1cccc(Cl)c1)C12CC3CC(CC(C3)C1)C2`, the GI50 was inactive: 2.3 µM.

As for `CCOC(=O)C1=C(C)N(CC(C)C)C2(O)C(OC)CC(=O)C3C(=O)N(c4ccccc4)C(=O)C132` (stereo not given), the GI50 is inactive: 44.4 µM.

As for `O=C(NC(N1CCN(c2cc3c(cc2F)c(=O)c(C(=O)O)cn3C2CC2)CC1)(C(F)(F)F)C(F)(F)F)c1ccccc1`, the GI50 is inactive: 23.7 µM.

In the case of `COc1ccc(Cn2c(=O)c(OC)c(C)c3cc4ccccc4cc32)cc1`, the GI50 is inactive: 32.4 µM.

On to `NC(CCCCO)C(=O)O` (stereo not given), for which the GI50 was inactive: > 100 µM.

With `CCC1=C(CC2NCCc3ccccc32)CC2c3cc(OC)c(OC)cc3CCN2C1` (stereo not given), the GI50 was active: 0.392 µM.

For the compound `CCOC(=O)c1c(SC(=O)c2ccc(C(C)(C)C)cc2)n(-c2ccccc2)c(=S)n(-c2ccccc2)c1=O`, the GI50 was inactive: > 100 µM.

In the case of `CC1OC(n2cc(F)c(=O)[nH]c2=O)CCC1=O` (stereo not given), the GI50 is inactive: 62.7 µM.

For the compound `COC1/C=C/C(C)C(C(C)C(OC)C(C)CCC(=O)C(C)C(CC(=O)O)OC)OC(=O)/C=C/C=C(\C)CC(OC)C(OC)C2=CC(=O)O[C@@H](C(C)C(OC)CC(OC)/C=C/C(C)C(O)C1)[C@H]2O` (stereo not given in full), the GI50 was active: 0.0702 µM.

With `COc1cccc2c1OC1(C=C2)Oc2ccccc2C(=O)N1C` (stereo not given), the GI50 is inactive: 41.9 µM.

Consider `COc1ccc(C(SC2C(O)C(CO)OC2n2ccc(=O)[nH]c2=O)(c2ccccc2)c2ccc(OC)cc2)cc1` (stereo not given), for which the GI50 was inactive: 10.8 µM.

As to `COC(=O)/C(=N\Nc1nnc(C)n1N)C(C#N)c1ccc(Cl)cc1` (stereo not given), the GI50 was inactive: > 100 µM.

Consider `COc1ccc(OC)c(/C=C2/C(=O)N/C(=N\C(C)=O)N2C)c1`, for which the GI50 is inactive: > 100 µM.

For the compound `C=CCC1C(=O)CC2(C)C(CC=C)C(=O)CC12C` (stereo not given), the GI50 was inactive: > 100 µM.

In the case of `COc1cc(/C=C2/C[C@H]3[C@@H]4CCC5=CC(=O)CC[C@]5(C)[C@H]4CC[C@]3(C)NC2=O)cc(OC)c1OC`, the GI50 was inactive: 15 µM.

As for `CC(=O)NC(c1nc2cc(C)c(C)cc2[nH]1)c1nc2cc(C)c(C)cc2[nH]1`, the GI50 is inactive: 25.2 µM.

For `CC(O)(CCCCCl)c1nc2ccccc2s1` (stereo not given), the GI50 was inactive: > 100 µM.

As for `CN(C)CCCOC(=O)C(O)(Cc1ccccc1)C1CC1` (stereo not given), the GI50 is inactive: > 100 µM.

As to `O=c1n(-c2ccccc2)c(=O)n2c(-c3ccccc3)c(-c3ccccc3)n12`, the GI50 is inactive: > 100 µM.

On to `O=C(Cc1ccccc1)NN1C(=O)C(Cl)C1c1ccc(O)cc1` (stereo not given), for which the GI50 is inactive: > 100 µM.

`CCc1c(C)[nH]c2c1/C(=N/N=C1\CCCc3[nH]c(C)c(CC)c31)CCC2`: the GI50 is inactive: 30.8 µM.

Turning to `C1COCCN1.S=C(S)N1CCOCC1`, the GI50 was inactive: > 100 µM.

As to `C[n+]1c2n(c3nc(N)[nH]c(=O)c31)C1OC(C2)C(O)C1O` (stereo not given), the GI50 was inactive: > 100 µM.

Consider `Cc1ccccc1C(=O)N1CCN(C(=O)c2ccccc2C)CC1`, for which the GI50 was inactive: > 100 µM.

In the case of `N#Cc1cccc(C2SCc3nc4ccccc4n32)c1` (stereo not given), the GI50 is inactive: > 100 µM.

As to `Cc1c(C(=O)CC(=O)C(=O)Nc2cccc(C(F)(F)F)c2)[n+]([O-])c2ccccc2[n+]1[O-]`, the GI50 is inactive: 2.69 µM.

With `O=C1c2ccccc2C(=O)c2c1c1cc(O)ccc1n2Cc1ccc(Cl)cc1Cl`, the GI50 is inactive: 14.6 µM.

As for `CC(=O)OCC1OC(N=[N+]=[N-])C(OC(C)=O)C(OC(C)=O)C1OC1OC(COC(C)=O)C(OC(C)=O)C(OC(C)=O)C1OC(C)=O` (stereo not given), the GI50 is inactive: > 100 µM.

For the compound `CC(=O)OCCc1cccnc1/C=N/O`, the GI50 was inactive: > 100 µM.

In the case of `O=C1NC(c2ccc(O)cc2)C2CCC1C2` (stereo not given), the GI50 was inactive: > 100 µM.

As for `CC1N=C(c2ccccc2)OC1=O` (stereo not given), the GI50 is inactive: > 100 µM.

`CC1(C)N=C2C(=O)c3c([nH]c4ccccc34)[C@]3(C)CCC1CC23` (stereo not given in full): the GI50 is inactive: > 6.25 µM.

Turning to `CCOC(=O)C1(CC)CCCCC(=O)N1` (stereo not given), the GI50 is inactive: > 100 µM.

Turning to `COC(C)(C)[C@@H]1CCCN1C1=C(C)C(=O)OC1`, the GI50 was inactive: > 100 µM.

On to `O=C(C[n+]1ccccc1)N/N=C(\Cc1nc2ccc([N+](=O)[O-])cc2nc1O)C(=O)Nc1cc(Cl)c(Cl)cc1Cl`, for which the GI50 was inactive: > 100 µM.

In the case of `CCCCCCCCCCCC(=O)OCCOCCOCCOCCOCCOCc1ccc(OC)cc1`, the GI50 is inactive: > 100 µM.

Turning to `CC(=O)OC1CCC2(C)C(=CC(C3C=C4CC(OC(C)=O)CCC4(C)C4=C3C3CC5OC6(CCC(C)CO6)C(C)C5C3(C)CC4)C3=C2CCC2(C)C3CC3OC4(CCC(C)CO4)C(C)C32)C1` (stereo not given), the GI50 was inactive: 23.1 µM.

In the case of `Cc1cc2nn(C3CCCO3)nc2cc1C` (stereo not given), the GI50 was inactive: > 100 µM.

In the case of `O=S(O)CCCCSSCC(O)C(O)CSSCCCCS(=O)O` (stereo not given), the GI50 was inactive: 60.5 µM and inactive: 44.4 µM.

With `CC(=O)O[C@H]1C(=O)[C@@]2(C)C(C(OC(=O)c3ccccc3)[C@]3(O)CC(OC(=O)C(O)C(NC(=O)c4ccccc4)c4ccc(C)cc4)C(C)=C1C3(C)C)[C@]1(OC(C)=O)CO[C@@H]1C[C@@H]2O` (stereo not given in full), the GI50 is active: 0.0724 µM.

For `CC(=O)O[C@H]1CCc2c(cc(N)c3c2C(=O)C[C@]2(C)C([C@H](C)CCCC(C)C)CCC32C)C1(C)C` (stereo not given in full), the GI50 is inactive: > 100 µM.

For `O=C(CN(C(=O)OC12CC3CC(CC(C3)C1)C2)C(=O)OC12CC3CC(CC(C3)C1)C2)Oc1ccc([N+](=O)[O-])cc1`, the GI50 is inactive: > 100 µM.

Take `Cn1c(=O)nc2n(-c3cc(Cl)ccc3Cl)c3ccccc3nc-2c1=O`: the GI50 was inactive: 5.65 µM.

`CCN(CC)CCNc1ccc2nc(C)n3c4ccc(OC)cc4c(=O)c1c23`: the GI50 was inactive: 1.13 µM.

As to `Cc1nc2ccccc2n1Cc1nnc(-c2ccccc2)o1`, the GI50 is inactive: > 100 µM.

As for `COc1ccc(-c2nnc3nc4ccccc4n3c2O)cc1`, the GI50 is inactive: > 100 µM.
